Experimental data as given in the supplement of paper PMC11417369.
± gives the standard deviation of the averaged measurements. Some of the results follow.

Tested on: PfAP2-G AP2 domain (GST-tagged)
Assay: gcPBM binding intensity (ln(normalized median fluorescence intensity)); higher = stronger DNA binding
How it was run: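 The binding buffer was 1× PBS containing 1% milk, 0.2 mg/ml BSA, 0.5% salmon testes DNA and 0.03% Triton X-100. In it, GST-tagged P. falciparum DNA-binding domains expressed in E. coli were applied for 1 h to an Agilent 4 × 180k array of primer-extended double-stranded 36-bp intergenic genomic probes plus negative controls. Binding intensity, read with Alexa488 anti-GST antibody and a 488 nm scan, is the highest Masliner-normalised natural-log median intensity across replicate spots of either probe orientation.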

Row | Sequence | gcPBM binding intensity (ln)
1 | AAAAAACAAAAAATTACACACATATATAAATATATT [CACACA_site2317] | 9.615 ± 0.021
2 | TAATAAAGGTGTAATACACACTATAAAAAGGAATAT [CACACA_site4756] | 10.09 ± 0.014
3 | TACACCCATAGACACACACACACGCATAAAAAAAAA [CACACA_site8428] | 10.4 ± 0.4
4 | AAAAAAAAAAAAAAAAGTACTAATTGAATATTAAAC [XGTACX_site3383] | 11.5 ± 0.93
5 | ACATATATATAAATATATATATATATATATATATAT [CACACA_negctrl_site874] | 9.76 ± 0.47
6 | ATGGTAAGTATTTTATGTACATATATATTTATATAA [XGTACX_site4003] | 11.3 ± 0.79
7 | TTTTTTAACCTTTTATGTACACAATATTTAACATTT [XGTACX_site1170] | 11.6 ± 0.95
8 | ACTTACACAGTTGATGGTACACTTTTATGATTTTGT [XGTACX_site3205] | 11 ± 0.53
9 | TATATATAAAGGTGTACACATATATATATATCTGTA [CACACA_site5311] | 11.7 ± 0.98
10 | ATTTCATATTATGTAACACACAACAAGATAATCAAA [CACACA_site1960] | 10.1 ± 0.26
11 | TTTTATTTACACAGTGGTACTATTAAAAATTAATGA [XGTACX_site6737] | 11 ± 0.7
12 | ATAAGGTTACAACAAACACACAAAGGAATATACTCA [CACACA_site6108] | 10.2 ± 0.13
13 | ACAAGTTAAAATATTACACACATATAAATATATATA [CACACA_site3132] | 9.84 ± 0.099
14 | AATATTTGTTAAAGAGGTACACCATTTGGTAGGGAA [XGTACX_site2165] | 11.4 ± 0.79
15 | ATAATATGAAAACACACACACACACTAGAAAAAAAA [CACACA_site5153] | 10.2 ± 0.35
16 | AAAAAAAAAAATATAACACACAACAAAAAAATATAT [CACACA_site1753] | 9.85 ± 0.099
17 | ATTATTTAAATGGATGCACACATGCATTAAATAAAA [CACACA_site5831] | 9.915 ± 0.078
18 | TATTTTAACATTAGGTGTACATACAAAAATAAAAAT [XGTACX_site8577] | 11.6 ± 0.93
19 | AAATTAATATTATGTGCATGCACAAAGAGGAACGAC [TGCATGCA_site754] | 10.6 ± 0.51
20 | TGGTAATTTCTTTGATAAAAATTAATATGTATAAAT [XGTACX_negctrl_site152] | 9.815 ± 0.064
21 | TTTTTCAAATTTAATACACACACAAGTATATATTTA [CACACA_site9307] | 9.84 ± 0.085
22 | TTTTTCTTTTTACATACACACAAAAAAATAAAATAT [CACACA_site581] | 10.3 ± 0.33
23 | AATTGGAAGAAAAAAAAGGAAGGAAAGTTATTACAT [GTGCAC_negctrl_site74] | 9.61 ± 0.16
24 | TATATACATGCATATACACACATATATTTATTTATA [CACACA_site6327] | 9.93 ± 0.12
